For 6 molecules, binding results are on record in article PMC7706265.

Amino acid sequences for entries named in this document (tags omitted).
UniProt A2A791: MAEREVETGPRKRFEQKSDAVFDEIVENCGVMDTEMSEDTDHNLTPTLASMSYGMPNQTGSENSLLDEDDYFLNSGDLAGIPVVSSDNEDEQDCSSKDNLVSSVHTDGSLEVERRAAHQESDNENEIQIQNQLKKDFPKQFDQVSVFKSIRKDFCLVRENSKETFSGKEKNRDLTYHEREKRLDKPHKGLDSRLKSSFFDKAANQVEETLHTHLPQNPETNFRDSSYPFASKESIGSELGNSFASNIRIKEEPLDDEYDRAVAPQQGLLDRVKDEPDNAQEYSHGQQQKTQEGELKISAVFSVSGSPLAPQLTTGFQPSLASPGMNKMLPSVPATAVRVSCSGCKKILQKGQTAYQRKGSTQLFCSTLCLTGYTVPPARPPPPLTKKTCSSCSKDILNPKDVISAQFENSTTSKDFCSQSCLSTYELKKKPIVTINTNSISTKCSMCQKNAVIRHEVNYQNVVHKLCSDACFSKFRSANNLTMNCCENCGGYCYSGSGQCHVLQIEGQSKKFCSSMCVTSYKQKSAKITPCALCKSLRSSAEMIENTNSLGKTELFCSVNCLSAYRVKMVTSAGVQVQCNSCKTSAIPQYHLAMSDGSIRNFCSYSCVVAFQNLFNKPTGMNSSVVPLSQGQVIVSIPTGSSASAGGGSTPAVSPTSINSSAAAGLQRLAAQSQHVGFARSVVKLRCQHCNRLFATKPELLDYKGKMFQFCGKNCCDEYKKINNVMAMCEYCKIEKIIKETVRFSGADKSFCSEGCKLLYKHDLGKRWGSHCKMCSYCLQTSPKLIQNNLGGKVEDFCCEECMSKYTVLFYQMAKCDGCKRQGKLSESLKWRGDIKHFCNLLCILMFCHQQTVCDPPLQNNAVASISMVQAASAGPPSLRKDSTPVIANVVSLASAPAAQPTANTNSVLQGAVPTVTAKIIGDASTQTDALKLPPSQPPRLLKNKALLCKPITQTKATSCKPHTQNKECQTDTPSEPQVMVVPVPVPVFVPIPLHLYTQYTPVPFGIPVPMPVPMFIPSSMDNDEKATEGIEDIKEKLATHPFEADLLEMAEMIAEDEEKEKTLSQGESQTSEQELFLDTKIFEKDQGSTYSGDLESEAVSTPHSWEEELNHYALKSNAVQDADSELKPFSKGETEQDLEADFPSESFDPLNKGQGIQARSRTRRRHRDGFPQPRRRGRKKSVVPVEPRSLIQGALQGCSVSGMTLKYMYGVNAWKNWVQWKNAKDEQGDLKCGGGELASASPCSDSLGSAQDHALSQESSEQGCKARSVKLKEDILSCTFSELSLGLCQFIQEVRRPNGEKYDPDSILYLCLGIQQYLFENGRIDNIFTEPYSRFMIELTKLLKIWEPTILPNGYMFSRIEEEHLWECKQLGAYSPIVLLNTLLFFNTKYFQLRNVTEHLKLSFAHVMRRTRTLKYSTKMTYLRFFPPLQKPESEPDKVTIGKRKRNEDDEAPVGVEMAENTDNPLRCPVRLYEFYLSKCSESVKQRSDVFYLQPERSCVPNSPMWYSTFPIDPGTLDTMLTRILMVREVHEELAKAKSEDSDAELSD
UniProt Q5DTW7: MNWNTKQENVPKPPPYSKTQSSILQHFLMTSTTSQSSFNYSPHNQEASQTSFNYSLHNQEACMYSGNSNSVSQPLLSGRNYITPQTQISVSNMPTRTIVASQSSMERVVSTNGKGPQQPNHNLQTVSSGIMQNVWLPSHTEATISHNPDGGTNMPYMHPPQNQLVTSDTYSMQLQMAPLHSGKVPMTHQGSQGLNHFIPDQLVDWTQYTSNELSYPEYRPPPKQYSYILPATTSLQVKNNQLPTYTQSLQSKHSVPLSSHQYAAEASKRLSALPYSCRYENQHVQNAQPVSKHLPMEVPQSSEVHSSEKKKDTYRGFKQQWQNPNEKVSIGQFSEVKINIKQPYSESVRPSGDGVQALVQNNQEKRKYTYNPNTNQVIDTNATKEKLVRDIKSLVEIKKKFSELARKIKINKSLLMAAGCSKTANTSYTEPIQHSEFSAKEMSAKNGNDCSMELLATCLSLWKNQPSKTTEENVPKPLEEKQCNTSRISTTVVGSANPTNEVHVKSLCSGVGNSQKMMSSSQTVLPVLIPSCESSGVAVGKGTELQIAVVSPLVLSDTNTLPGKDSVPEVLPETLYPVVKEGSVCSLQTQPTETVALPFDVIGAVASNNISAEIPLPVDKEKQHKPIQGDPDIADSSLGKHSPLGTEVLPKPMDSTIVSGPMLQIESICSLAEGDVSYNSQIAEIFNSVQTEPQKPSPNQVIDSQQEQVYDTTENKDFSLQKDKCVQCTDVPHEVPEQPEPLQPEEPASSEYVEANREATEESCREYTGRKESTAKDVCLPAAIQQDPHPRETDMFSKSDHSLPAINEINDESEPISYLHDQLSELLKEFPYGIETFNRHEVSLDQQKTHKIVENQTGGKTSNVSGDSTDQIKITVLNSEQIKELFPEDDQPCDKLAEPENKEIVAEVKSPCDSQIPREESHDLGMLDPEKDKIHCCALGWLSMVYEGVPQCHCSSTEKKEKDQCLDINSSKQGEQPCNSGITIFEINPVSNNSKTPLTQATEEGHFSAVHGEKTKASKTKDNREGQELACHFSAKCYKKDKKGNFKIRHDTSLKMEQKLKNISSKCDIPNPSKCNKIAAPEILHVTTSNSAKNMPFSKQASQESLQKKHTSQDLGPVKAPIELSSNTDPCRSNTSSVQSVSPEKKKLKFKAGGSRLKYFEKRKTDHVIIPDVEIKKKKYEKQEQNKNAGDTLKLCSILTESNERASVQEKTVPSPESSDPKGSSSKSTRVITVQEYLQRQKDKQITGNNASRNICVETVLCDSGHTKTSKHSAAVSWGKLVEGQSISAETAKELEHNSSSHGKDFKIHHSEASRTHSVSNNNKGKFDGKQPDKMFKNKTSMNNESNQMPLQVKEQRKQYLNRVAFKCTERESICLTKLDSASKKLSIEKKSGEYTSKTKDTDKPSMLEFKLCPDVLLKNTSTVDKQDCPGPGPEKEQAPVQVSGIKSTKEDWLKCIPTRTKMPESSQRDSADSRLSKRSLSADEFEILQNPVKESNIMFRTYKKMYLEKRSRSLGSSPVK

Experiment [1] addresses T1, 3xFLAG-tagged ATF7IP WT (transiently expressed in HEK293T cells) (mouse) (UniProt Q7TT18).
T1 sequence: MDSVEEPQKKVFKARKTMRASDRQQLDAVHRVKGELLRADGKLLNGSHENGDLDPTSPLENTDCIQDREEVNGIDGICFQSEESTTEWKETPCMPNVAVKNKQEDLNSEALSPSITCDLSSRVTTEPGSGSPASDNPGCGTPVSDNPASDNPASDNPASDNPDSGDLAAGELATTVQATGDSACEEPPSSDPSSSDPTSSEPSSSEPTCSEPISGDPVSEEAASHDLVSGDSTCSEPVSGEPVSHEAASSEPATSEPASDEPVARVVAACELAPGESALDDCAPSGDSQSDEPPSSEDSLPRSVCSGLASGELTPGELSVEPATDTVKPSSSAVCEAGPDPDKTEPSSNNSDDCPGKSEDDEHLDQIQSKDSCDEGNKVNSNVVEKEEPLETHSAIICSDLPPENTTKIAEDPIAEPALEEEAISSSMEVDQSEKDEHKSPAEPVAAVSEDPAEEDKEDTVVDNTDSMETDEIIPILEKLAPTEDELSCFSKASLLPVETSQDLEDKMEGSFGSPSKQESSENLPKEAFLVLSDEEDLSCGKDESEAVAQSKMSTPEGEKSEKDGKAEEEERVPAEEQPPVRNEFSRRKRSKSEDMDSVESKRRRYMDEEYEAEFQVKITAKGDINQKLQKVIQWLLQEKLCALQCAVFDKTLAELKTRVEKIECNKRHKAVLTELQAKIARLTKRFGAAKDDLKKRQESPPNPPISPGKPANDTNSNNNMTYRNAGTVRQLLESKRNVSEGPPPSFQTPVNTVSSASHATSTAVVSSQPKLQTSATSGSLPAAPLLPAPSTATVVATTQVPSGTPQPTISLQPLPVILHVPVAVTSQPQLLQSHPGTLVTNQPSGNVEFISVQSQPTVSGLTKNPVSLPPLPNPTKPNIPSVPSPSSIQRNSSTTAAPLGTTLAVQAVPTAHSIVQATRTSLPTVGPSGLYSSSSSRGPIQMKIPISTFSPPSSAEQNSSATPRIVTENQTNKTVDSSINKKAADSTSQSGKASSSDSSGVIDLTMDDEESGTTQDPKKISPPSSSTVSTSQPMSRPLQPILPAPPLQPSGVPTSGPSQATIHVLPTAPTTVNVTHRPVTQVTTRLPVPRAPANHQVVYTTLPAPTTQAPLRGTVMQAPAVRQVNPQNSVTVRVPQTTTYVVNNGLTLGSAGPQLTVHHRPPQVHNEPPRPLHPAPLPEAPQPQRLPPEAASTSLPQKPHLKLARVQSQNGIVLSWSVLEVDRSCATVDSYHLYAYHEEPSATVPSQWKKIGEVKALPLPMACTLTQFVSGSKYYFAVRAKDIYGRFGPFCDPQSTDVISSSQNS
The experiment in a line: co-IP; HEK293T cells transiently co-transfected with 3xFLAG-ATF7IP (WT or dFNIII) and V5-tagged proteins; precipitated with anti-FLAG M2 affinity gel, 4 °C; western blot; which lysis buffer was used is not said.

Experiment [2] deals with T2, 3xFLAG-tagged ATF7IP dFNIII mutant (transiently expressed in HEK293T cells) (mouse) (UniProt Q7TT18).
T2 sequence: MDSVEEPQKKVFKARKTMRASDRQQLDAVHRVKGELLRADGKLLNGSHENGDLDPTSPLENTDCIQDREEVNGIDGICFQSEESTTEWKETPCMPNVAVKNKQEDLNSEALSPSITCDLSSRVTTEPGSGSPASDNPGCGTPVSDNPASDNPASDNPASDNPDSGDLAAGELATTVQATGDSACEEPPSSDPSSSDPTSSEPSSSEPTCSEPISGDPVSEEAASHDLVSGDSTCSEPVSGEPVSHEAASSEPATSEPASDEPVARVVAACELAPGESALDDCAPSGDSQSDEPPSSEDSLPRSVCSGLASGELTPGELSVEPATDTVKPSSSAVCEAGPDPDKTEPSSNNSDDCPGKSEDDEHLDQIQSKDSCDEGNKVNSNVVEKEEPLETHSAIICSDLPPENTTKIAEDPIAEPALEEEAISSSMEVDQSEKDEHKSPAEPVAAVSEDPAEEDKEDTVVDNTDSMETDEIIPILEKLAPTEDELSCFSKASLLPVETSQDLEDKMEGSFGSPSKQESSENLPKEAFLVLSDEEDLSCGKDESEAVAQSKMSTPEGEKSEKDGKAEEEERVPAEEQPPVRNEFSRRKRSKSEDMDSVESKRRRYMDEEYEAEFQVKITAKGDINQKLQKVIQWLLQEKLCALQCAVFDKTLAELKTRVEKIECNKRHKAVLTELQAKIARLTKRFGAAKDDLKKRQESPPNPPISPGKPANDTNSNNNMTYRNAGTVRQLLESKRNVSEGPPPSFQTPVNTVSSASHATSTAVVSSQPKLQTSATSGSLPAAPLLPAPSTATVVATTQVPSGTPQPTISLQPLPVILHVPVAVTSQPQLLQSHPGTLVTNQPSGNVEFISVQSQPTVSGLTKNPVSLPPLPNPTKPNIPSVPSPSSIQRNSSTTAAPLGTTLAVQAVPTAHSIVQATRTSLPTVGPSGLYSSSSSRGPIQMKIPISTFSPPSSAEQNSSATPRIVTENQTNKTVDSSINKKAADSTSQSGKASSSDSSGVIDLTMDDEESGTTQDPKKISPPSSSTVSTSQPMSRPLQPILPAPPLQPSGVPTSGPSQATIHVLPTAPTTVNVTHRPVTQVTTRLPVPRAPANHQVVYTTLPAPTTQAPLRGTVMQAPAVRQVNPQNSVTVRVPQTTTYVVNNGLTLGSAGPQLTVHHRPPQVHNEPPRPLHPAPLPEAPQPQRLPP
Described as above.

Changes are numbered by the printed parent chain. Numbers in names are those of the source. Results are given in words; binding and its absence hold for the method and conditions named. In cells and extracts the contact can be indirect. Some entries that bind do so weakly or less than the wild type. Where a sequence is shown, tags or fusion partners need not be part of it.

“mouse ZMYM4 (expressed in HEK293T cells) (from UniProt A2A791 1-1549)”: the binding result in experiment [1] was “binds”.

For the molecule “V5-tagged mouse KIAA1551 (from UniProt Q5DTW7 1-1521)”, the values for the binding result in experiment [2] and in experiment [1] were “no binding” and “binds”, respectively.

B1: V5-ZMYM2 FAM1 mutant (V187R/L190R) (protein, UniProt Q9CU65 1-1376)
chain: MDTSSVGTLELTDQTPVLLGSTAMATSLTNVGNSFSGPPNPLVSRSSKFQNSSVEDDDDVVFIEPVQPPPSSAPLVADQRPITFTSSKNEELQGNDPKILPSSKELAPQKGSVSETIVIDDEEDMETNQGQEKSSSNFIERRPSETKNRTNDVDFSSSTFSRSKVNAGVSNSGITTEPDSEIQIANRTTRETGVSSVSDGQLESTDGRDMNLMITHVTSLHNTSLGDGSNGLQSSNFGVNIQTYTPSLTSQTKAGVGPFNPGRMNVAGDVFQNGESAPHHNPDSWISQSASFPRNQKQQGVDSLSPVASLPKQIFQPSNQQPTKPVKVTCANCKKPLQKGQTAYQRKGSAHLFCSTTCLSSFSHKPAPKKLCVMCKKDITTMKGTIVAQVDSSESFQEFCSTSCLSLYEDKQSPAKGALNKSRCTICGKLTEIRHEVSFKNMTHKLCSDHCFNRYRMANGLIMNCCEQCGEYLPSKGAGNNVLVVDGQQKRFCCQSCVTEYKQVGSHPSFLKEVRDHMQDSFLMQPEKYGKLTTCTGCRTQCRFFDMTQCIGPNGYMEPYCSTACMNSHKTKYAKSQSLGIICHFCKRNSLPQYQATMPDGKLYNFCNSSCVAKFQALSMQSSPNGQFVAPSDIQLKCNYCKNSFCSKPEILEWENKVHQFCSKTCSDDYKKLHCIVTYCEYCQEEKTLHETVNFSGVKRPFCSEGCKLLYKQDFARRLGLRCVTCNYCSQLCKKGATKELDGVVRDFCSEDCCKKFQEWYYKAARCDCCKSQGTLKERVQWRGEMKHFCDQHCLLRFYCQQNEPNMTTQKGPENLHYDQGCQTSRTKMTGSAPPPSPTPNKEMKNKAILCKPLTMTKATYCKPHMQTKSCQTDENWKTEYVPVPIPVPVYVPVPMHMYSQNIPVPTTVPVPVPVPVFLPAPLDSSEKIPATVEDLKSKVSSDPLDSELLTMTDMMTEEEGKAEASNINSVIIETDIIGSDLTKNSDPDIQSNMPDVPYEPDLDIEIDFPRAAEELDMENEFLLPPVFGEEYEEQPRPRSKKKGTKRKAVSGYQSHDDSSDNSECSFPFKYTYGVNAWKHWVKTRQLDEDLLVLDELKSSKSVKLKEDLLSHTTAELNYGLAHFVNEIRRPNGENYAPDSIYYLCLGIQEYLCGSNRKDNIFIDPGYQMFEQELNKILRSWQPSILPDGSIFSRVEEDYLWRIKQLGSHSPVALLNTLFYFNTKYFGLKTVEQHLRLSFGTVFRHWKKNPLTMENKACLRYQVSSLCGTDNEDKIATGKRKHEDDEPVFEQVENTANPSRCPVKMFECYLSKSPQNLNQRMDVFYLQPECSSSTDSPVWYTSTSLDRNTLENMLVRVLLVKDIYDKDNYELDEDTD
For B1, the binding result in experiment [1] is on record as “binds”.

B2: V5-ZMYM2 FAM1 and FAM2 double mutant (protein, UniProt Q9CU65 1-1376)
chain: B1 chain with V217R, L220R
Consider B2, for which, in experiment [1], the binding entry is recorded as “no binding”.

B3: V5-ZMYM2 FAM2 mutant (V217R/L220R) (protein, UniProt Q9CU65 1-1376)
chain: B1 chain with R187V, R190L, V217R, L220R
Take B3: the binding result in experiment [1] is on record as “binds”.

B4: V5-ZMYM2 d39aa mutant (lacks residues 182-220) (protein, UniProt Q9CU65)
chain: MDTSSVGTLELTDQTPVLLGSTAMATSLTNVGNSFSGPPNPLVSRSSKFQNSSVEDDDDVVFIEPVQPPPSSAPLVADQRPITFTSSKNEELQGNDPKILPSSKELAPQKGSVSETIVIDDEEDMETNQGQEKSSSNFIERRPSETKNRTNDVDFSSSTFSRSKVNAGVSNSGITTEPDSEHNTSLGDGSNGLQSSNFGVNIQTYTPSLTSQTKAGVGPFNPGRMNVAGDVFQNGESAPHHNPDSWISQSASFPRNQKQQGVDSLSPVASLPKQIFQPSNQQPTKPVKVTCANCKKPLQKGQTAYQRKGSAHLFCSTTCLSSFSHKPAPKKLCVMCKKDITTMKGTIVAQVDSSESFQEFCSTSCLSLYEDKQSPAKGALNKSRCTICGKLTEIRHEVSFKNMTHKLCSDHCFNRYRMANGLIMNCCEQCGEYLPSKGAGNNVLVVDGQQKRFCCQSCVTEYKQVGSHPSFLKEVRDHMQDSFLMQPEKYGKLTTCTGCRTQCRFFDMTQCIGPNGYMEPYCSTACMNSHKTKYAKSQSLGIICHFCKRNSLPQYQATMPDGKLYNFCNSSCVAKFQALSMQSSPNGQFVAPSDIQLKCNYCKNSFCSKPEILEWENKVHQFCSKTCSDDYKKLHCIVTYCEYCQEEKTLHETVNFSGVKRPFCSEGCKLLYKQDFARRLGLRCVTCNYCSQLCKKGATKELDGVVRDFCSEDCCKKFQEWYYKAARCDCCKSQGTLKERVQWRGEMKHFCDQHCLLRFYCQQNEPNMTTQKGPENLHYDQGCQTSRTKMTGSAPPPSPTPNKEMKNKAILCKPLTMTKATYCKPHMQTKSCQTDENWKTEYVPVPIPVPVYVPVPMHMYSQNIPVPTTVPVPVPVPVFLPAPLDSSEKIPATVEDLKSKVSSDPLDSELLTMTDMMTEEEGKAEASNINSVIIETDIIGSDLTKNSDPDIQSNMPDVPYEPDLDIEIDFPRAAEELDMENEFLLPPVFGEEYEEQPRPRSKKKGTKRKAVSGYQSHDDSSDNSECSFPFKYTYGVNAWKHWVKTRQLDEDLLVLDELKSSKSVKLKEDLLSHTTAELNYGLAHFVNEIRRPNGENYAPDSIYYLCLGIQEYLCGSNRKDNIFIDPGYQMFEQELNKILRSWQPSILPDGSIFSRVEEDYLWRIKQLGSHSPVALLNTLFYFNTKYFGLKTVEQHLRLSFGTVFRHWKKNPLTMENKACLRYQVSSLCGTDNEDKIATGKRKHEDDEPVFEQVENTANPSRCPVKMFECYLSKSPQNLNQRMDVFYLQPECSSSTDSPVWYTSTSLDRNTLENMLVRVLLVKDIYDKDNYELDEDTD
Take B4: in experiment [1], the binding result is “no binding”.
